From the supplement of paper PMC6531468 come the findings set out here.

The list shows a part of the results. Read counts after selection give these values, which scatter widely. Each score is taken over the longer molecules that contain the sequence shown.

UniProt O00425, sequence (O00425 whole entry): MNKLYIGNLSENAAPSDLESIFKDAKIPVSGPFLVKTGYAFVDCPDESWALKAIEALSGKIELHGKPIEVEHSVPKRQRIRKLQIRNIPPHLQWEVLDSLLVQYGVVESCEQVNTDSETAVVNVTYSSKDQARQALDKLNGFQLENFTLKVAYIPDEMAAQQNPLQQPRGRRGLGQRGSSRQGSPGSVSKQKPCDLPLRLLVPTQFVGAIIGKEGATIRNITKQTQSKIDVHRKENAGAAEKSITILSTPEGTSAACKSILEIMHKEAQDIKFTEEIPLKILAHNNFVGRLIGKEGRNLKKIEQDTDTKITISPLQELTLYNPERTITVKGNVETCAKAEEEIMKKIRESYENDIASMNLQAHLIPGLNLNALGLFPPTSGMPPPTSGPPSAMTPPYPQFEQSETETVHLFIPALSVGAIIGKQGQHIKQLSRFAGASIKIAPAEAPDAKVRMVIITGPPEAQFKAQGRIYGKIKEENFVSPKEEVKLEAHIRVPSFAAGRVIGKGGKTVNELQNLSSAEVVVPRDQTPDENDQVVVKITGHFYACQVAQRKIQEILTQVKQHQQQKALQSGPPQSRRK

This experiment concerns the target IMP3 full-length (UniProt O00425). As to the kind of experiment: 6-mer SELEX enrichment z-score vs GST control; IMP3 is the RNA-binding protein IGF2BP3; higher = more enriched by binding. To be noted: construct: FL IMP3 (1-579); SELEX round: R4. How it is done:
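SELEX-seq with GST-tagged full-length IMP3 and an N40 RNA pool, round 4. Each 6-mer is scored as an enrichment z-score of sequence tags containing it, normalised to the matching GST SELEX round. RNA written as DNA (T = U).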
ATGTCG: the “6-mer SELEX enrichment z-score” value turned out to be 0.518. For GTTATA the value was -0.021. In the case of GGCTAG it was 0.313. As to TGCGGG, the “6-mer SELEX enrichment z-score” value came out at 0.32. In the case of AGGGCA it was 1.52. GGTCCT: the “6-mer SELEX enrichment z-score” value was -0.036.

In the case of CCTAGT, the “6-mer SELEX enrichment z-score” value was -0.333. On to CGCCGG, for which the “6-mer SELEX enrichment z-score” value worked out at 0.663. In the case of TCCGTA it was -0.115. In the case of AGTGTC it was -0.015; in that of TAGGAG, 0.161. For the sequence GTATAA, the “6-mer SELEX enrichment z-score” value is -0.222. In the case of AGGCAT, the “6-mer SELEX enrichment z-score” value worked out at 2.1.

Take TGGGCG: the “6-mer SELEX enrichment z-score” value is -0.082. In the case of CTTCAG it was 0.446. For the sequence GTGCTG, the “6-mer SELEX enrichment z-score” value was 0.071. On to CGCATA, for which the “6-mer SELEX enrichment z-score” value amounted to 0.704. For AGCAAT the value was 0.353; for CCAGTT, 0.058; for GTCCCC, -0.014. For CTATCT the value was -0.062; for CACCGG, 0.982; for GGGTTC, 0.255. In the case of ACTAAC it was -0.509; in that of GAGTAG, -0.279. Consider AATAGT, for which the “6-mer SELEX enrichment z-score” value was 0.091. For GCTACC the value was -0.148. In the case of ACTTGT it was -0.199; in that of TCCAGT, 0.151; in that of TTGCTA, -0.06.

In the case of TCACAT, the “6-mer SELEX enrichment z-score” value stood at 2.4. As for AGAGAA, the “6-mer SELEX enrichment z-score” value is -0.426. In the case of TTGTGG it was 0.034; in that of GCGCAA, 0.482; in that of ATGTAG, -0.151. In the case of TCCGAT it was -0.315; in that of TCACTG, 0.724.

As to GACATC, the “6-mer SELEX enrichment z-score” value was found to be 0.612. For AAAGAT the value was -0.871; for TGTTAT, -0.006.
